# Measured values taken from ChEMBL document CHEMBL5606460, “ASAP - DENV-2 NS2B-NS3 protease fluorescence single point” (2024).
# Out of some 2,000 compounds screened, about 110 (5.5%) showed an effect of 50% or more. The list shows a part of the results.
# Biological target: Genome polyprotein (dengue virus type 2) (UniProt P29990)
# [1] = Thailand/16681/1984, Concentration 25.0 uM, Number of replicates 1.0
structure (smiles),measurement,setting,value
O=C(N[C@H]1CCOC1)c1cc(Cl)ccc1NS(=O)(=O)c1ccc(Oc2ccccc2Cl)cc1,inhibition,"Thailand/16681/1984, Concentration 49.5 uM, Number of replicates 2.0, Standard deviation 0.8156312071794307 %",64.1%
same,inhibition,"Thailand/16681/1984, Concentration 99.01 uM, Number of replicates 2.0, Standard deviation 0.42939613872644544 %",63.6%
same,inhibition,"Thailand/16681/1984, Concentration 198.0 uM, Number of replicates 2.0, Standard deviation 0.707503298737338 %",53%
CNC(=O)c1cc(Cl)ccc1NS(=O)(=O)c1cnn(CC(C)C)c1,inhibition,"Thailand/16681/1984, Concentration 49.5 uM, Number of replicates 2.0, Standard deviation 0.9417274972534758 %",-7.39%
Cc1cc(CO)c2cccc(Cc3cccc(NC(=O)C[C@H]4CCCN4)c3)c2n1,inhibition,"Thailand/16681/1984, Concentration 49.95 uM, Number of replicates 2.0, Standard deviation 0.1263380443971036 %",-4.58%
same,inhibition,"Thailand/16681/1984, Concentration 99.9 uM, Number of replicates 2.0, Standard deviation 0.8674748654209231 %",-4.17%
CNC(=O)c1cc(Cl)ccc1NS(=O)(=O)c1ccc(Cl)cc1C(=O)OC,inhibition,"Thailand/16681/1984, Concentration 49.5 uM, Number of replicates 2.0, Standard deviation 2.167906435330492 %",-3.73%
same,inhibition,"Thailand/16681/1984, Concentration 99.01 uM, Number of replicates 2.0, Standard deviation 1.3330253926635593 %",0.537%
same,inhibition,"Thailand/16681/1984, Concentration 198.0 uM, Number of replicates 2.0, Standard deviation 1.9740117132174586 %",6.85%
O=Cc1ccc(N2CCC(C(=O)Nc3n[nH]cc3Br)CC2)cc1,inhibition,[1],13.1%
COc1ccc(CNC(=O)C2CCN(c3ccc(C=O)cc3)CC2)c(Cl)c1,inhibition,[1],11.6%
O=Cc1ccc(N2CCC(C(=O)NCc3ccc(F)c(Cl)c3)CC2)cc1,inhibition,[1],10.7%
O=Cc1ccc(N2CCC(C(=O)Nc3ccc(-n4ccnc4)cc3)CC2)cc1,inhibition,[1],14%
O=Cc1ccc(N2CCC(C(=O)Nc3ccc4nccnc4c3Br)CC2)cc1,inhibition,[1],15.2%
Cc1cnccc1NC(=O)C1(C(=O)Nc2ccc(F)cc2)CC1,inhibition,"Thailand/16681/1984, Concentration 49.5 uM, Number of replicates 2.0, Standard deviation 0.7679495502283891 %",-1.86%
same,inhibition,"Thailand/16681/1984, Concentration 99.01 uM, Number of replicates 2.0, Standard deviation 0.5589540337623873 %",-1.99%
same,inhibition,"Thailand/16681/1984, Concentration 198.0 uM, Number of replicates 2.0, Standard deviation 1.058583807287932 %",-1.28%
Cc1cc(CO)c2cccc(Cc3cccc(NC(=O)c4ccc(O)cc4)c3)c2n1,inhibition,"Thailand/16681/1984, Concentration 49.95 uM, Number of replicates 2.0, Standard deviation 2.5506525665903212 %",1.47%
same,inhibition,"Thailand/16681/1984, Concentration 99.9 uM, Number of replicates 2.0, Standard deviation 2.3754855648054365 %",4.66%
CNC(=O)c1cc(Cl)c(F)cc1NS(=O)(=O)c1ccc(Oc2ccccc2Cl)cc1,inhibition,"Thailand/16681/1984, Concentration 49.5 uM, Number of replicates 2.0, Standard deviation 0.030615470758313425 %",98.6%
same,inhibition,"Thailand/16681/1984, Concentration 99.01 uM, Number of replicates 2.0, Standard deviation 0.03013533386007732 %",99.7%
same,inhibition,"Thailand/16681/1984, Concentration 198.0 uM, Number of replicates 2.0, Standard deviation 0.00477978979592347 %",98.7%
Cn1cc(NC(=O)c2ccccc2C(F)(F)F)c(-c2ccc3nncn3c2)n1,inhibition,"Thailand/16681/1984, Concentration 49.5 uM, Number of replicates 2.0, Standard deviation 0.5155052691009917 %",-2.16%
same,inhibition,"Thailand/16681/1984, Concentration 99.01 uM, Number of replicates 2.0, Standard deviation 1.0676335364533427 %",-1.41%
same,inhibition,"Thailand/16681/1984, Concentration 198.0 uM, Number of replicates 2.0, Standard deviation 0.4436497392774962 %",-0.287%
Cc1cc(NC(=O)C2CCN(c3ccc(C=O)cc3)CC2)cc(C)c1Br,inhibition,[1],5.87%
N#Cc1cc(Cl)c(NC(=O)C2CCN(c3ccc(C=O)cc3)CC2)c(Cl)c1,inhibition,[1],13.8%
Cc1cc(CO)c2cccc(Cc3ccccc3C(=O)N[C@H]3C[C@@H](O)C3)c2n1,inhibition,"Thailand/16681/1984, Concentration 49.95 uM, Number of replicates 2.0, Standard deviation 0.23931115454400867 %",4.51%
same,inhibition,"Thailand/16681/1984, Concentration 99.9 uM, Number of replicates 2.0, Standard deviation 0.6482239248941596 %",13.2%
O=C(O)c1ccc(C2CCN(Cc3c[nH]c4ccccc34)CC2)cc1,inhibition,"Thailand/16681/1984, Concentration 49.5 uM, Number of replicates 2.0, Standard deviation 1.7343724876046411 %",-5.12%
same,inhibition,"Thailand/16681/1984, Concentration 99.01 uM, Number of replicates 2.0, Standard deviation 1.3827672929369348 %",-3.46%
same,inhibition,"Thailand/16681/1984, Concentration 198.0 uM, Number of replicates 2.0, Standard deviation 2.1920985156415025 %",-1.05%
O=C(c1cc(Cl)ccc1NS(=O)(=O)c1ccc(Oc2ccccc2Cl)cc1)N1CC[C@H](CO)C1,inhibition,"Thailand/16681/1984, Concentration 49.5 uM, Number of replicates 2.0, Standard deviation 1.1631525408138252 %",2.87%
same,inhibition,"Thailand/16681/1984, Concentration 99.01 uM, Number of replicates 2.0, Standard deviation 1.2459174873464263 %",43.6%
same,inhibition,"Thailand/16681/1984, Concentration 198.0 uM, Number of replicates 2.0, Standard deviation 0.07742612093802895 %",97.8%
CNC(=O)Cc1cn(S(=O)(=O)c2ccc(Oc3ccccc3Cl)cc2)c2ccc(Cl)cc12,inhibition,"Thailand/16681/1984, Concentration 49.5 uM, Number of replicates 2.0, Standard deviation 0.8029092652501143 %",1.74%
same,inhibition,"Thailand/16681/1984, Concentration 99.01 uM, Number of replicates 2.0, Standard deviation 0.8699473681419663 %",5.7%
same,inhibition,"Thailand/16681/1984, Concentration 198.0 uM, Number of replicates 2.0, Standard deviation 0.7327772465027748 %",11.9%
Cc1cc(CO)c2cccc(NC(=O)Cc3c(C)c4c(=O)[nH]n(C)c4[nH]c3=O)c2n1,inhibition,"Thailand/16681/1984, Concentration 49.95 uM, Number of replicates 2.0, Standard deviation 1.6565788461475972 %",17.7%
same,inhibition,"Thailand/16681/1984, Concentration 99.9 uM, Number of replicates 2.0, Standard deviation 1.9416844060600267 %",32.2%
O=Cc1ccc(N2CCC(C(=O)N(Cc3c(F)cccc3Cl)C3CC3)CC2)cc1,inhibition,[1],14.1%
CNC(=O)[C@H]1CCCN(S(=O)(=O)c2ccc(Oc3ccccc3Cl)cc2)C1,inhibition,"Thailand/16681/1984, Concentration 49.5 uM, Number of replicates 2.0, Standard deviation 1.3425926640552597 %",-1.55%
same,inhibition,"Thailand/16681/1984, Concentration 99.01 uM, Number of replicates 2.0, Standard deviation 1.1232771440198652 %",0.94%
same,inhibition,"Thailand/16681/1984, Concentration 198.0 uM, Number of replicates 2.0, Standard deviation 1.8999403128335026 %",2.72%
